{"source": "PubChem BioAssay AID463173", "about": "(ICCB-Longwood Screening Facility, Harvard Medical School, 2010)", "note": "Hit rate of the full screen: of about 52,000 compounds, about 1,700 (3.3%) were called active. Cut-off read from the data, not from the text of the source: active = survival mostly below about 52% (no sharp cut-off); inactive = mostly above about 56%. This is one part of the list.", "data": [{"system": "Wild type", "experiment": "growth inhibition of S. aureus wild type versus tarO mutant, primary screen, teichoic acid synthesis inhibitors, RN4220, OD600 (AID 463173)", "conditions": "S. aureus RN4220 wild type/DeltatarO growth, OD600, 18 h, active compounds read low, screened at 18.75 µg/mL (by protocol)", "values": [{"compound": "Cc1ccc(NC(=O)c2sc(-n3nc(C)c(CCC(C)C)c3C)nc2C)cc1C", "survival": "inactive: 95%"}, {"compound": "Cc1nc2ccn(Cc3cccs3)c(=O)c2cc1C(=O)N1CCN(c2ccc(F)cc2)CC1", "survival": "inactive: 129%"}, {"compound": "C=Cn1c(C(=O)O)cc(CC)c1-c1ccccc1", "survival": "inactive: 104%"}, {"compound": "CCN(C(=O)c1cc2c(Cl)nc3ccccc3c2s1)c1cccc(Cl)c1", "survival": "inactive: 76%"}, {"compound": "CCOC(=O)c1cnc2c(C)c(Cl)ccc2c1Nc1ccc(C)cc1C", "survival": "inactive: 140%"}, {"compound": "C=Cn1cc[n+](CC(=O)c2ccc(Cl)cc2)c1", "survival": "inactive: 108%"}, {"compound": "CC1=C(C(=O)Nc2cccnc2)C(c2ccc(F)cc2)n2nc(SCc3ccccc3F)nc2N1", "note": "(centres undefined)", "survival": "inactive: 71%"}, {"compound": "CN1c2cc(Cl)ccc2-c2nc(SCC(=O)Nc3ccc(F)cc3F)ncc2S1(=O)=O", "survival": "inactive: 73%"}, {"compound": "COC(=O)c1ccc(S(=O)(=O)N2CCC(c3nc4ccccc4s3)CC2)cc1", "survival": "inactive: 108%"}, {"compound": "O=C(Nc1ccccc1)Oc1ccc2sc(=O)oc2c1", "survival": "inactive: 91%"}, {"compound": "c1ccc(OCCSc2nc3ccccc3o2)cc1", "survival": "inactive: 116%"}, {"compound": "COc1cc(NC(=O)CN(C)S(=O)(=O)c2ccc3[nH]c4c(c3c2)CCCC4)cc(OC)c1OC", "survival": "inactive: 72%"}, {"compound": "COc1ccc(OC2CCN(S(=O)(=O)c3ccc(OC)cc3)CC2)cc1", "survival": "inactive: 125%"}, {"compound": "CC1(c2ccccc2)OC(=O)C(C#N)C12CCCCC2", "note": "(centres undefined)", "survival": "inactive: 122%"}, {"compound": "O=C1C2=C(Nc3[nH]c(=O)[nH]c(=O)c3C2c2cccs2)c2ccccc21", "note": "(centres undefined)", "survival": "inactive: 124%"}, {"compound": "O=C(NC1CCCC1)c1ccc(CSc2nc3ccncc3n2Cc2ccccc2F)cc1", "survival": "inactive: 84%"}, {"compound": "CCOC(=O)N1CCc2c(sc(NCc3ccc(OCC)cc3)c2C(=O)Nc2ccc(OC)cc2OC)C1", "survival": "inactive: 84%"}, {"compound": "CN(C)C(=O)/C=C/c1ccc2c(c1)OCO2", "survival": "inactive: 113%"}, {"compound": "Cc1cc(NC(=O)CSc2nc3c([nH]c4ccccc43)c(=O)n2-c2cccc(Cl)c2)no1", "survival": "inactive: 89%"}, {"compound": "Clc1ccc(-c2noc3ncnc(NCCCN4CCN(c5ccccc5)CC4)c23)cc1", "survival": "inactive: 72%"}, {"compound": "C=C(C)CSc1nc(C)cc(C)c1C#N", "survival": "inactive: 108%"}, {"compound": "CCOC(=O)C1CCCN(C(=O)C2CCN(c3nnc(C)c4c(C)n(-c5ccccc5)nc34)CC2)C1", "note": "(centres undefined)", "survival": "inactive: 152%"}, {"compound": "CC1=NN(c2ccccc2)C(c2ccccc2)C1", "note": "(centres undefined)", "survival": "inactive: 98%"}, {"compound": "COc1ccccc1C(=O)NCc1ccc2c(c1)CCN2C(=O)c1ccncc1", "survival": "inactive: 72%"}, {"compound": "Cn1c(C=Nc2ccc(Cl)cc2)nc2ccccc21", "survival": "inactive: 111%"}, {"compound": "CCOc1ccccc1NC(=O)C(Cc1ccccc1)NS(=O)(=O)c1ccc(Br)s1", "note": "(centres undefined)", "survival": "inactive: 137%"}, {"compound": "Cc1ccc(C)c(N(CC(=O)Nc2ccccc2)S(C)(=O)=O)c1", "survival": "inactive: 99%"}, {"compound": "Cc1ccc(C)c(N2CCN(C(=O)C3CCN(S(=O)(=O)c4cn(C)cn4)CC3)CC2)c1", "survival": "inactive: 75%"}, {"compound": "CC(=O)Nc1ccccc1C(=O)NCc1ccco1", "survival": "inactive: 106%"}, {"compound": "COc1ccc(CNS(=O)(=O)c2cc(C(=O)Nc3cc(Cl)cc(Cl)c3)ccc2F)cc1", "survival": "inactive: 88%"}, {"compound": "CCc1ccc(CNC(=O)C(CC)n2ccc3cc(S(=O)(=O)N4CCCCC4)ccc32)cc1", "note": "(centres undefined)", "survival": "inactive: 81%"}, {"compound": "CCOC(=O)C1C(=O)C(C(=O)OCC)C(c2cccnc2)NC1c1cccnc1", "note": "(centres undefined)", "survival": "inactive: 110%"}, {"compound": "COc1ccccc1C(=O)NCc1ccc2c(c1)CCN2C(=O)c1cccc(C)c1", "survival": "inactive: 98%"}, {"compound": "COc1ccc(N2CCN(C(=O)C3CCN(S(=O)(=O)c4cnc[nH]4)CC3)CC2)cc1", "survival": "inactive: 121%"}, {"compound": "CCCc1nc2ccccc2n1CC(O)COc1ccccc1", "note": "(centres undefined)", "survival": "inactive: 103%"}, {"compound": "CCOC(=O)Cn1c(=O)oc2cc(S(=O)(=O)Nc3cc(OC)cc(OC)c3)ccc21", "survival": "inactive: 73%"}, {"compound": "CCc1ccc2[nH]c(=O)c(CN(CCN(C)C)C(=O)Nc3ccccc3Cl)cc2c1", "survival": "inactive: 115%"}, {"compound": "CCc1ccccc1Nc1nn2c(=O)c3ccc(C(=O)NCc4cccs4)cc3nc2s1", "survival": "inactive: 67%"}, {"compound": "O=C(c1cccc(S(=O)(=O)N2CCOCC2)c1)N1CCCCC1", "survival": "inactive: 107%"}, {"compound": "CN1CCN(C(c2ccc(F)cc2)c2sc3nc(-c4ccco4)nn3c2O)CC1", "note": "(centres undefined)", "survival": "inactive: 71%"}, {"compound": "Cc1cccc(C(=O)Nc2cccc(C(=O)OCc3cc(=O)n4c5c(sc4n3)CCCC5)c2)c1", "survival": "inactive: 148%"}, {"compound": "CCc1ccc(S(=O)(=O)c2nnn3c2nc(NCc2cccs2)c2sccc23)cc1", "survival": "inactive: 90%"}, {"compound": "CCn1c(C)c(C)c2cc(C(=O)NCCc3cc(OC)c(OC)c(OC)c3)ccc21", "survival": "inactive: 73%"}, {"compound": "CCNC(=S)N1CCN(C)CC1", "survival": "inactive: 104%"}, {"compound": "O=C(Nc1ccccc1F)C(Cc1ccccc1)n1cccc1", "note": "(centres undefined)", "survival": "inactive: 85%"}, {"compound": "COc1ccc(-c2c3c(=O)n(C)c(=O)n(C)c3c3c(-c4ccccc4)nc4ccccc4n23)cc1", "survival": "inactive: 64%"}, {"compound": "COc1ccccc1N1CCN(c2cc(N3CCCC3)nc(C)n2)CC1", "survival": "inactive: 111%"}, {"compound": "COc1ccc(Cn2c(C(=O)O)c(CNCc3cccs3)c3ccc(C)cc32)cc1", "survival": "inactive: 67%"}, {"compound": "O=C(Nc1ccc2nc(SCC(=O)N3CCOCC3)sc2c1)c1ccc(F)cc1", "survival": "inactive: 92%"}, {"compound": "CNC(=O)c1cc2c(n(-c3ccc(C)cc3)c1=O)CC(C)(C)CC2=O", "survival": "inactive: 66%"}, {"compound": "Cc1cc(C)c(Nc2nn3c(=O)c4cc5c(cc4nc3s2)OCO5)c(C)c1", "survival": "inactive: 74%"}, {"compound": "CNC(=O)C1CC(=O)N(c2ccc(OC)cc2)C1", "note": "(centres undefined)", "survival": "inactive: 110%"}, {"compound": "COc1cccc(C(=O)Nc2ccc3oc(-c4ccc5ccccc5c4)nc3c2)c1", "survival": "inactive: 80%"}, {"compound": "COc1cc(OC)cc(-c2nc3nc(C)c(CCC(=O)Nc4ccc(Cl)cc4)c(C)n3n2)c1", "survival": "inactive: 79%"}, {"compound": "CCCn1cnc2cc(NCc3ccc(OC)cc3OC)ccc21", "survival": "inactive: 63%"}, {"compound": "CCOc1ccc(CC(=O)N2CCc3cc(OC)c(OC)cc3C2COc2ccc3c(C)cc(=O)oc3c2)cc1", "note": "(centres undefined)", "survival": "inactive: 92%"}, {"compound": "CC(C)CC(=O)Nc1ccccc1-c1nnn(CC(=O)N2CCc3ccccc3C2)n1", "survival": "inactive: 103%"}, {"compound": "Oc1ccc(NCc2ccc(OCc3ccccc3)cc2)cc1", "survival": "inactive: 87%"}, {"compound": "Cc1cc(=O)oc2cc(OCC(=O)Nc3ccc(O)c(C(=O)O)c3)ccc12", "survival": "inactive: 75%"}]}]}
